Several values for one entry are separate records, joined by “and”; a condition that tells them apart may be missing. Identical values can stand only once. The campaign covered roughly 16,000 compounds. About 40 (0.2%) were called active. About 1% were inconclusive and are not listed. Calls come from the whole dose curve; as a rule, active = well fitted activation curve with a large enough effect; inconclusive = small, poorly fitted or top-dose-only effect, or another doubt; inactive = no such curve, though single readings can be large or run the other way. The list shows a part of the results.
What follows are compounds tested against Rap guanine nucleotide exchange factor 4 (Homo sapiens) (UniProt Q8WZA2) (assay: Validation qHTS for agonist of cAMP-regulated guanine nucleotide exchange factor 4 (EPAC2)). Conditions: EPAC2 Rap1B BODIPY-GDP exchange, fluorescence; activation: active compounds read high.
UniProt Q8WZA2, sequence (Q8WZA2 whole entry, looked up): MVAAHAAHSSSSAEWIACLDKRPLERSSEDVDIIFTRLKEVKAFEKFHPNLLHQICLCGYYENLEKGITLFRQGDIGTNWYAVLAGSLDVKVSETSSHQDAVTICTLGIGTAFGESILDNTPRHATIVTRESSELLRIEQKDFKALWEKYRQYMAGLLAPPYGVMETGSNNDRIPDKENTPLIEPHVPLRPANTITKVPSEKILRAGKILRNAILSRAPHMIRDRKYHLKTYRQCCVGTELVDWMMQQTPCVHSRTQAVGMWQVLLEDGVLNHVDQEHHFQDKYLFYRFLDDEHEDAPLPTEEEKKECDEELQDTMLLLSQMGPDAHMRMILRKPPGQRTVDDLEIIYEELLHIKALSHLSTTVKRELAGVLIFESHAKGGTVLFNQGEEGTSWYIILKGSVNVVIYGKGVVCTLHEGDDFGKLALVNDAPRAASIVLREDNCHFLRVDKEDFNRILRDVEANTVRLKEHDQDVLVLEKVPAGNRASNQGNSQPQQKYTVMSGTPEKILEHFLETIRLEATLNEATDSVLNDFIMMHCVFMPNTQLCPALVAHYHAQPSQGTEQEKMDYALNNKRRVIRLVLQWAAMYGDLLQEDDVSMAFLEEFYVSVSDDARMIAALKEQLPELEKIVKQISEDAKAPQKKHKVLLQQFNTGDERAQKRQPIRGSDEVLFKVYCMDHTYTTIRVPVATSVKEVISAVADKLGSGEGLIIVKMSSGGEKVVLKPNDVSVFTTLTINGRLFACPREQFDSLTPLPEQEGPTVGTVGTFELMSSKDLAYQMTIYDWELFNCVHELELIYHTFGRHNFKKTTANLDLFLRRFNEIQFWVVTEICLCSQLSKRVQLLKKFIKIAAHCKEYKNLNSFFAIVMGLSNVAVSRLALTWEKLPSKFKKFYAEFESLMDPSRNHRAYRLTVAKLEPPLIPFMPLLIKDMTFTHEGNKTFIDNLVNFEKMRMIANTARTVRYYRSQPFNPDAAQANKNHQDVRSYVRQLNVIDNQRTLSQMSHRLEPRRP
Method in brief: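 Signal normalized against 6.5 mM cAMP as agonist control. Mix of EPAC2 (100 nM), RAP1B-BODIPY-GDP (250 nM) and GDP (50 uM) was read kinetically at 480/540 nm, every 5 min over 30 min, after 5 min room-temperature incubation with compound.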
% is set by controls: 0 for no effect and ±100 for the full control effect.
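Note: exchange makes BODIPY-GDP fluorescence drop when released from Rap1B; series mostly up to about 150 µM.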

activation, inactive:
CN1CCC2(CCN3CCc4c(oc5ccccc45)C3C2)N(C)C1=O (configuration not stated) -29.9%
O=c1cc(-c2ccccc2O)oc2cc(O)cc(O)c12 0.492%
Cc1noc(C)c1-c1nc(NCCN2CCOCC2)c2ccccc2n1 -7.77%
CCCCCCCCCCCCCc1ccco1 -15.9%
Cc1cnc(-n2ncc(C(=O)N[C@H]3CCCCNC3=O)c2C2CC2)nc1-c1cccs1 -5.07%
COc1ccc(OC)c(CN2CCOc3ccc(CN4CCC(O)(c5cccnc5)CC4)cc3C2)c1 -22.1%
Cn1cc(C(=O)OCC2CCN(CCNS(C)(=O)=O)CC2)c2ccccc21 -26.7% and -1.5%
CNc1cc(-c2ccccc2C)ncn1 -2.51%
COCCn1c(=O)c(CCc2ccccc2)nc2cnc(Oc3cccc(Cl)c3)nc21 -12.4%
COc1cc(C(=O)N2CCOCC2)cc(OC)c1OC 1.55% and 3.93%
C=C1C(=O)O[C@H]2[C@H]1CC/C(C)=C\CC[C@@]1(C)O[C@@H]21 -12.2%
COc1ncc2nc(-c3ccc(F)cc3)c(=O)n(-c3ccccc3)c2n1 1.33%
CC(=O)OCC(=O)[C@@]1(O)CC[C@H]2[C@@H]3CCC4=CC(=O)CC[C@]4(C)[C@H]3C(=O)C[C@@]21C 10.9% and -8.76%
CC(C)(C)[C@H]1CCC(=O)N(CCSc2ccc(Br)cc2)CC1 -6.38%
CC(=O)OCC(=O)[C@@]1(O)CC[C@H]2[C@@H]3CCC4=CC(=O)C=C[C@]4(C)[C@@]3(F)[C@@H](O)C[C@@]21C -10.3%
CO[C@]12C[C@@H](COC(=O)c3cncc(Br)c3)CN(C)[C@@H]1Cc1cn(C)c3cccc2c13 -1.59% and -20.2%
Cc1oc(-c2cccc(NC(=O)c3ccccn3)c2)nc1CNC(=O)C#Cc1ccccc1 8.73%
O=C(NCC1CCC2(CCN(Cc3cc4ccccc4o3)CC2)O1)c1ccccc1 (configuration not stated) -14.7%
COc1cccc(Nc2ncc3nc(C)c(=O)n(C[C@H]4CCCO4)c3n2)c1 -13.4%
COCC1CCCN(Cc2ccc3c(c2)CN(C(=O)c2ccc(-n4cccn4)cc2)CCO3)C1 (configuration not stated) -6.56%
Cc1ncc(C[n+]2csc(CCOP(=O)(O)O)c2C)c(N)n1 -14.4%
CNCC[C@H](Oc1ccc(C(F)(F)F)cc1)c1ccccc1 -44.1% and -51.2%
